Measurements as given in ChEMBL document CHEMBL4888484, “Replenishing the malaria drug discovery pipeline: Screening and hit evaluation of the MMV Hit Generation Library 1 (HGL1) against asexual blood stage Plasmodium falciparum ,using a nano luciferase reporter read-out” (2022).
Several values for one entry are separate records, joined by “and”; a condition that tells them apart may be missing. Equal entries are not always repeated. The whole screen tested about 150,000 compounds, of which about 540 (0.36%) showed an effect of 50% or more. Some of the results follow.

System: Plasmodium falciparum
Assay: Primary screen in NF54 nanoGlo assay, in single point, at 2uM, 72h; a lower Z score goes with more inhibition
Assay type: functional, Erythrocyte
Conditions: timepoint 72 hour

Row | SMILES | % Inhibition [%] | Z score | % Inhibition (2 µM)
1 | c1coc(CN2CCC(NCCc3nc(C4CC4)no3)CC2)c1 | -11 | 1.17 | 
2 | O=C1c2ccccc2C(=O)N1Cc1nc(Cc2cccs2)no1 | -15 | 1.7 | 
3 | O=S(=O)(NCC1CCC2(CCOCC2)C1O)C1CC1 (stereo unspecified) | 5 | -0.87 | 
4 | Fc1ccc(-c2cc(-c3ccc(Cl)cc3)nc3c2COc2ccccc2-3)cc1 | -11 | 1.21 | 
5 | C[C@@H](C(N)=O)N(C)CCc1ccc(F)cc1 | -11 | 1.63 | 
6 | CC[C@H](C)N(CC#Cc1ccccc1)Cc1ccc(CO)o1 | 10 | -1.34 | 
7 | COc1ccc(Cl)cc1NC(=O)[C@H]1C[C@@H]2CCCN2[C@]12C(=O)Nc1c(Cl)cc(C)cc12 | -9 | 1.3 | 
8 | O=C(Cn1c(=O)n(CC(=O)NC2CCCC2)c(=O)c2ccccc21)Nc1ccc(Cl)c(Cl)c1 | -9 | 1.42 | 
9 | Cc1ccc(Cn2c(=O)c3nn(C)cc3n3c(=O)n(Cc4cc(C)ccc4C)nc23)cc1 | 2 | -0.27 | 
10 | CCc1nc(OCC(=O)NCc2ccc(OC)cc2OC)c2c(-c3ccc(F)cc3)noc2n1 | 6 | -0.88 | 
11 | Cc1ncc(S(N)(=O)=O)cc1C(=O)NCC1(C(C)C)CC1 | 10 | -2.02 | 
12 | O=C(C[C@@H]1C=CCC1)NCCc1cn2c(n1)CCCC2 | 2 | -0.28 | 
13 | Cc1cc(C)nc(-c2cccc(C(=O)NC[C@@H](CO)Cc3ccsc3)c2)c1 | -9 | 1.16 | 
14 | C[C@@]1(C(=O)NC2CCCCCCC2)Cn2nc(-c3ccco3)cc2C(=O)N1Cc1ccc(F)cc1 | -9 | 1.81 | 
15 | Cc1cc(=O)cc(C(=O)NC2Cc3ccccc3C2)[nH]1 | -5 | 0.74 | 
16 | O=C(NC1CCCCC1)N(CC1CC1)c1ccccc1 | -3 | 0.32 | 
17 | CCc1cc(N2CCOc3c(O)cc(-c4ccc(Cl)cn4)cc3C2)ncn1 | -18 | 1.63 | 
18 | Cc1noc(C)c1CC(=O)Nc1n[nH]c(CC(C)C)n1 |  |  | 1% and -1% and -7%
19 | COc1ccc2cc3n(c2c1)CC(C)(C(=O)NCC1CCCO1)N(CCC(C)C)C3=O (stereo unspecified) | -11 | 1.06 | 
20 | Cc1cc(C(=O)N2CCN(S(=O)(=O)c3cccnc3)CC2)sc1C | -13 | 2.04 | 
21 | CCc1nnc(C)cc1C(=O)N1CCN(c2cccc(F)c2)C[C@@H]1C | -18 | 2.2 | 
22 | CCn1nccc1NC(=O)c1cc(-c2cnn(C)c2)nc2onc(C)c12 | 31 | -3.48 | 

Row | SMILES | % Inhibition [%] | Z score | % Inhibition (2 µM)
23 | Cc1cccc(OCc2nc(CN(CC(C)C)C(=O)C3CCCC3)cs2)c1C | 1 | -0.13 | 
24 | CC(=O)N(C[C@H]1CCCO1)c1nc2ccc(F)cc2s1 | -6 | 0.86 | 
25 | Cc1cc(C)nc(NC(=O)N(C)CCO)c1 | -11 | 1 | 
26 | O=S(=O)(Nc1ncn(-c2ccccc2)n1)c1cccs1 | -9 | 1.24 | 
27 | CCN(C(C)=O)c1nc(CN(C)Cc2cc(C)on2)cs1 | 4 | -0.67 | 
28 | COCc1cc(N[C@H]2CCCc3nn(C)cc32)ncn1 | 8 | -1.51 | 
29 | COc1cc([C@H]2CC(=O)Nc3ccsc32)ccc1O | 0 | 0.07 | 
30 | CC(C)N1CC[C@@H](CC(=O)O)[C@@H](Cc2nc3ccccc3n2C)C1 | 2 | -0.25 | 
31 | CCCN(CC#N)S(=O)(=O)c1cccc(F)c1C | -13 | 1.28 | 
32 | CN=C(NCCCc1nc(C)no1)NCc1ccc(F)cc1 | 2 | -0.31 | 
33 | CC(=O)NCCNC(=O)[C@H]1CCc2[nH]cnc2C1 | -17 | 2.91 | 
34 | COCCCNC(=O)CCN(CCC(C)C)C(=O)c1ccoc1 | -8 | 0.74 | 
35 | CCS(=O)(=O)c1ccc(O)c(-n2ccnc2-c2ccc(CO)o2)c1 | 0 | 0.08 | 
36 | C[C@H]1CN(c2cc(Oc3cccc(F)c3)ncn2)CCN1Cc1cccc(C(F)(F)F)c1 | -5 | 0.56 | 
37 | Cc1nc(CN[C@H]2CC(C)(C)OC2(C)C)oc1C | -6 | 0.88 | 
38 | Cn1cc(C(=O)Nc2nc3cc4c(cc3s2)OCCO4)cn1 | 2 | -0.24 | 
39 | Cc1ccc(NC(=O)[C@H](C)C(=O)O)c(C)c1O | -9 | 1.37 | 
40 | COc1ccc(NC(=O)c2ccc(NC(=O)CC3(CC(=O)O)CCCCC3)cc2)cc1 | 16 | -1.86 | 
41 | CN(C)S(=O)(=O)c1cc(C(=O)N2CCCO2)co1 | 33 | -0.78 | 
42 | Cn1c(=O)c2ccccc2n(CC(=O)N2CCCc3ccccc32)c1=O | 0 | -0.07 | 
43 | CC[C@@H](Cn1ccnc1)NC(=O)c1c(C)oc2c1C(=O)CCC2 | 5 | -0.76 | 
44 | CC(=O)N1Cc2ccccc2C[C@H]1C(=O)N1CCC(CC(=O)N(C)C)CC1 | 3 | -0.65 | 

Row | SMILES | % Inhibition [%] | Z score | % Inhibition (2 µM)
45 | Cc1cccc2c1c(-c1cccc(C(=O)N[C@H]3CCN(C)C3=O)c1)nn2C | -14 | 2.66 | 
46 | CC(C)(C)c1ccc(Cn2c(C(=O)Nc3ccc(C(F)(F)F)cc3)cc3cc(NC(=O)C4CCC4)ccc32)cc1 | -10 | 1.1 | 
47 | C=C(C)C[C@H](C)C(=O)Nc1nccc(C)n1 | -1 | 0.19 | 
48 | CCc1nn(C)cc1NC(=O)NCC(=O)NCC1CC1 | -5 | 0.52 | 
49 | O=C(NC1(C(F)F)CC1)c1ccccc1 | -7 | 0.78 | 
50 | O=C(NCCC1=CCCCC1)c1c[nH]c2ncccc12 | -13 | 1.3 | 
51 | CCN1CC(CN(C)C(=O)C2CCC(=O)N2)Oc2ccccc21 (stereo unspecified) | -1 | 0.21 | 
52 | CCCc1nc(-c2c(C)cc(C)nc2NC(=O)c2cc(C)ccc2C)no1 | -4 | 0.72 | 
53 | COCCCn1ccc(Nc2ncc(C#N)cc2Cl)n1 | 4 | -0.52 | 
54 | COC1(c2ccnn2C)CN(c2c(C)c(C)nc3ncnn23)C1 | -1 | 0.2 | 
55 | O[C@H]1CC[C@@H](N[C@H]2CCc3c(Br)cccc32)CC1 | 6 | -0.65 | 
56 | CCc1n[nH]c2c1CN(Cc1noc([C@@H]3CCCO3)n1)CC2 | 20 | -2.68 | 
57 | CC(C(=O)N1CCCCC1C(=O)O)n1cncn1 (stereo unspecified) | -16 | 1.65 | 
58 | C[C@@H](c1ccon1)N(C)C(=O)c1coc(COc2ccccc2)n1 | -2 | 0.3 | 
59 | CC[C@H](C)c1nc(NC2CCC(NC(=O)c3ccc(Cl)cc3)CC2)c2cnn(-c3ccccc3Cl)c2n1 (stereo partly specified) | -12 | 1.27 | 
60 | CCOC(=O)c1sc(NC(=N)N)nc1C | -7 | 0.68 | 
61 | Cc1nn(C)cc1NC(=O)N[C@H]1CCCC[C@@H]1O | 34 | -4.34 | 
62 | O=C(CCc1ccncc1)NC1CCS(=O)(=O)CC1 | -1 | 0.09 | 
63 | CC(C)Cc1cc(N2Cc3c[nH]nc3[C@@H](C)C2)ncn1 | -3 | 0.32 | 
64 | Cc1cc(C[C@H](C)n2ccnc2-c2ccc(Cl)s2)[nH]n1 | -14 | 1.78 | 
65 | CC(C)OC1CCC(NC(=O)C2(C#N)CCCCC2)CC1 (stereo unspecified) | 5 | -0.54 | 
66 | Clc1c(CN[C@H]2CCc3ccccc32)sc2ccccc12 | -12 | 1.35 | 

Row | SMILES | % Inhibition [%] | Z score | % Inhibition (2 µM)
67 | CN(C)c1ccc(NC(=O)[C@H]2C[C@@H]2OC(C)(C)C)cn1 | 0 | 0.06 | 
68 | COC(=O)c1nc([C@@H]2CCCN2C(=O)c2ccnnc2)sc1C | 1 | -0.19 | 
69 | CCCC[C@H]1C(=O)N(C)CCN1C(=O)c1cnc(O)cn1 | -10 | 1.86 | 
70 | Cc1cc2c(cc1C)CN(c1cccc(C(=O)NCC[C@H]3CCOC3)c1)C2 | 4 | -0.73 | 
71 | Cc1cccc2[nH]c(COCC(=O)NCCc3cccnc3)nc12 | -8 | 0.9 | 
72 | CC(=O)Nc1ccc(N2C(=O)CN(C(C)C)C2=O)c(C(F)(F)F)c1 | 7 | -1.13 | 
73 | CC[C@H](C)NCCOc1ccc(F)cc1 | -14 | 1.92 | 
74 | Cc1noc(CNC(=O)c2ccc3[nH]c(=O)[nH]c3c2)n1 | -7 | 1.3 | 
75 | COc1ccc(Cl)cc1N1C(=O)C[C@H](N2CCN(Cc3ccc(Cl)s3)CC2)C1=O | -12 | 1 | 
76 | CCc1nc(C)c(N2C(=O)CN(CC)C2=O)s1 | 11 | -1.13 | 
77 | O=C(Nc1ccccc1F)C(=Cc1cc(-c2cccnc2)[nH]n1)C(=O)Nc1ccccc1F | -8 | 0.97 | 
78 | O=C(Cc1cccc2ccccc12)N1CCO[C@]2(CNCCOC2)C1 | 1 | -0.19 | 
79 | O=C(Nc1cnc(-n2cccn2)nc1)C(c1ccccc1)c1ccccc1 | 0 | 0.01 | 
80 | CC1CC1c1ccc(CN(C)Cc2nnsc2Cl)o1 (stereo unspecified) | -6 | 0.84 | 
81 | C[C@@H](C(=O)NC(C)(C)c1noc(C(N)=O)n1)c1ccccc1 | 2 | -0.23 | 
82 | Cn1nccc1CCC(=O)NS(=O)(=O)CCC1CCC1 | -8 | 1.18 | 
83 | Cc1ccsc1C(=O)N1C[C@H]2CC[C@@H](C1)N(CC1CC1)C2 | -12 | 1.56 | 
84 | COC1CCC(C(=O)N2c3ccccc3N(Cc3ccccc3)C(=O)CC2C)C1 (stereo unspecified) | -2 | 0.29 | 
85 | CCc1noc(C(=O)N2CCN[C@@H](Cc3ccccc3)C2)n1 | 5 | -0.91 | 
86 | O=C(Cc1ccc(N2CCC(NCCc3ccco3)CC2)cc1)NCc1ccccc1 | -11 | 1.66 | 
